About 14,000 (4.5%) of roughly 310,000 compounds showed an effect of 50% or more. Effects have a minus sign here. The list shows a part of the results.
target: human ether-à-go-go-related gene (hERG) potassium channel (human, UniProt Q12809); test: primary screen, population patch clamp on CHO cells stably expressing hERG
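Further: peak tail current of the secondary pulse compared with the same well before compound.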

human ether-à-go-go-related gene (hERG) potassium channel, sequence (Q12809 whole entry, looked up): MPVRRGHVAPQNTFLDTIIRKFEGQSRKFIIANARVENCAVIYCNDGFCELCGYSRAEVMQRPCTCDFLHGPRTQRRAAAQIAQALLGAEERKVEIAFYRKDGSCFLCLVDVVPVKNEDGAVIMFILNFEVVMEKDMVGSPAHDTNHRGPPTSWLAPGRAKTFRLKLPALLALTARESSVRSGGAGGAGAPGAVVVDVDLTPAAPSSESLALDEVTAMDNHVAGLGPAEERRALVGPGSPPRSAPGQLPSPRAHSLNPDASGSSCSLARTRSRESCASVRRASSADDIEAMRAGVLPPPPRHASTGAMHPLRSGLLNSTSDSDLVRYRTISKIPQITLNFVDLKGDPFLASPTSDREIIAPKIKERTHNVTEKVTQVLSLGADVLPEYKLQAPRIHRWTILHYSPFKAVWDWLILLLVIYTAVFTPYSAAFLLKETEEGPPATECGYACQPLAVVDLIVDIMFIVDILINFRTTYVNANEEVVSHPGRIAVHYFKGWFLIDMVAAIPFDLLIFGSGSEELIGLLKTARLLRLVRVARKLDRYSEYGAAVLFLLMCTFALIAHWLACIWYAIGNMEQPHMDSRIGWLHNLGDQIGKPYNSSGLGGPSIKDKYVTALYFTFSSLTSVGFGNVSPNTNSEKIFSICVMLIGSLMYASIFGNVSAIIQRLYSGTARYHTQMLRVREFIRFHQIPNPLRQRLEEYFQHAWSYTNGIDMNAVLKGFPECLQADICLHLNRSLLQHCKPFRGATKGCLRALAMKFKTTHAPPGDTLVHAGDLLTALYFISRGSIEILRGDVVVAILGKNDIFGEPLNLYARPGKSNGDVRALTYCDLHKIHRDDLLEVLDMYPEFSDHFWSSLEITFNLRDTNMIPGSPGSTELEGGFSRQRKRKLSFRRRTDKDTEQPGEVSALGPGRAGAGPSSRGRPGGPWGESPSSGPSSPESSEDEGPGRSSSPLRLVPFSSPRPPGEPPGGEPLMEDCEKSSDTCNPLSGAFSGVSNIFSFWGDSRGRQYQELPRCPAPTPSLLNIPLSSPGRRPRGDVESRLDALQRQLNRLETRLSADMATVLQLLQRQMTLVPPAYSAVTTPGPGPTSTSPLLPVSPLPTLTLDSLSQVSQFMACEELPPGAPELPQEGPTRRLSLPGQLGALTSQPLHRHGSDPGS

| SMILES | hERG current change (%, negative = inhibition) at 10uM |
| --- | --- |
| CC(NC(=O)CSc1nnc(-c2cccnc2)n1N)c1ccccc1 (stereo not shown) | 19.1% |
| COc1ccc(-c2c(C)nn3c(Cl)c(C)c(C)nc23)cc1 | 11.4% |
| COc1ccc(NC(=O)C(NC(C)=O)C(=O)Nc2ccc(F)cc2)cc1 (stereo not shown) | 10% |
| COc1cccc(NC(=O)CSc2ccc3nnc(-c4cccnc4)n3n2)c1 | -37.5% |
| Cc1cccc(Sc2ccc([N+](=O)[O-])cn2)c1 | -0.303% |
| Cc1ccc(-n2c(N)c(Br)c(=O)[nH]c2=O)cc1C | 11.8% |
| Cc1ccc(S(=O)(=O)N2CCCCC2CCNC(=O)C(=O)NCC2CCCO2)cc1 (stereo not shown) | -23.6% |
| O=C(Nc1cccc(F)c1)Nc1cnccn1 | 10.9% |
| O=C(CCc1ccccc1)NCC(=O)N/N=C/c1ccc2c(c1)OCO2 | -3.39% |
| CCOC(=O)C1(Cc2ccc(Cl)cc2)CCN(C(=O)c2cc(C)nc(C)n2)CC1 | -38.1% |
| O=C(COc1ccc(Cl)cc1Br)Nc1ccccc1N1CCCC1 | 9.41% |
| COc1ccc(-c2c(C(=O)O)c(C(=O)O)c3n2CCC3)cc1 | 24.2% |
| CCc1ccccc1Nc1nc(N)nc(CSCC(=O)c2cc(C)n(C)c2C)n1 | 2.36% |
| Cc1cc(N2CC(C(=O)NCc3cccnc3)CC2=O)ccc1C(C)C (stereo not shown) | -21.5% |
| CCCCSc1nc2c(c(C(F)(F)F)c1C#N)CCC2 | 6.11% |
| CCC(CC)C(=O)Nc1nnc(SCC(=O)N2CCN(c3ccccc3OC)CC2)s1 | 2.87% |
| CCc1ccccc1NC(=S)N=Nc1c(O)n(C)c2ccc(S(=O)(=O)N3CCOCC3)cc12 | 1.6% |
| COCCCn1c(SCC(=O)NCc2ccccc2)nc2ccccc2c1=O | -48.6% |
| COc1ccc(NC(=O)c2cccnc2SC)cc1OC | 19.5% |
| CC(=O)c1ccc(N2CCN(S(=O)(=O)c3ccc4c(c3)NC(=O)CO4)CC2)cc1 | 18.8% |
| CCn1c(SC(C)C)nnc1-c1cc(-c2ccccc2)sc1N | -7.04% |
| COc1ccc(-c2[nH]ncc2CN(CC2CCC(=O)N2)C(C)C)cc1F (stereo not shown) | 1.2% |

| SMILES | hERG current change (%, negative = inhibition) at 10uM |
| --- | --- |
| CC(=O)c1cccc(N(CC(=O)NC2CCCC2)C(=O)CNC(=O)c2cccs2)c1 | 6.44% |
| CCNC(=O)C(=O)c1c(-c2ccccc2)[nH]c2ccccc12 | 15.4% |
| CCC1C(=O)N=C(SCC(=O)Nc2nc3ccccc3s2)NC1=O (stereo not shown) | 17.5% |
| Cc1cccc(-c2noc(Cc3ccc(Cl)cc3)n2)c1 | 18.5% |
| CN(C)S(=O)(=O)c1cccc(C(=O)NCC(=O)NC2CCN(Cc3ccccc3)CC2)c1 | 3.32% |
| COc1cccc(/C=C/c2ccc3ccccc3n2)c1OC(C)=O | 26% |
| CCOC(=O)N1CCC(NC(=O)C2CCCN(Cc3nc(-c4ccc(CC)cc4)oc3C)C2)CC1 (stereo not shown) | -71.5% |
| Cc1cc(NC(=O)CSc2nc(C(C)C)nc3c2c(=O)n(C)c(=O)n3C)no1 | 7.37% |
| O=C(Nc1cnc2ccccc2c1)N1CCCCC1 | 2.63% |
| CCCN1CCN(C(=O)c2c(Cl)cnn2C)CC1 | 5.14% |
| O=C(O)c1ccc(NC(=O)c2ccc(COc3ccccc3)o2)cc1 | 14.3% |
| CCCCCC(=O)NC(=S)NNC(=O)CC | 12.9% |
| Cc1ccc2c(c1)[nH]c1c(=O)n(CCCN3CCOCC3)cnc12 | -34% |
| CCCCC1=CC2=CC(=O)C(C)(OC(=O)CC)C(=O)C2=CN1Cc1ccc(OC)cc1 (stereo not shown) | -55.1% |
| COc1cc(/C=C2/SC(=S)N(C)C2=O)ccc1OC(=O)c1ccco1 | -4.25% |
| CC1(C)SC(=Nc2ccccc2)N(S(=O)(=O)c2ccccc2)C1=O | -7.06% |
| Cc1ccc(S(=O)(=O)Nc2ccc3c(c2)OCCO3)c(C)c1NS(C)(=O)=O | -5.82% |
| COc1cc2c(cc1OC)C(c1ccc(N(C)C)cc1)NCC2.Cl (stereo not shown) | 5.99% |
| CNC(=O)c1[nH]cnc1C(=O)N[C@@H](C)C(=O)OCc1ccccc1 | -5.67% |
| Cc1cc(NC(=O)CN2CCN(c3ccccc3O)CC2)no1 | -7.15% |
| COc1cccc(C(=O)N/N=C(/CCC(=O)O)c2ccccc2)c1 | 5.17% |
| Cc1ccc(C)n1CCN1CCN(C(=O)CSc2nc3ccccc3nc2N2CCOCC2)CC1 | -54.5% |

| SMILES | hERG current change (%, negative = inhibition) at 10uM |
| --- | --- |
| COc1ccc(NS(=O)(=O)c2cccc(C(=O)NC3CCC(O)CC3)c2)cc1 (stereo not shown) | -0.973% |
| Cc1ccc(NC(=O)CN2C(=O)S/C(=C/c3ccc(-c4cc(C(=O)O)ccc4C)o3)C2=O)cc1C | -1.07% |
| O=C(NN1C(=O)C2C3c4ccccc4C(c4ccccc43)[C@@H]2C1=O)c1ccccc1 (stereo partly shown) | 6.97% |
| COc1cc(NC(=O)Cn2cnc(S(=O)(=O)N3CCc4ccccc43)c2)cc(OC)c1OC | 13.4% |
| Cc1ccc(NC(=S)N(CCN(C)C)C(C)c2ccco2)c(C)c1 (stereo not shown) | -34.1% |
| O=C(/C=C1\NCC2c3ccccc3CCN2C1=O)c1ccccc1 (stereo not shown) | -12% |
| N#Cc1ccc(C(=O)OCC(=O)Nc2cccc(S(=O)(=O)N3CCCCC3)c2)cc1 | -7.3% |
| Cc1ccc(CN=C(N)Nc2nc(C)cc(C)n2)cc1.Cl | -76.1% |
| O=C(CSCc1ccc([N+](=O)[O-])cc1)N/N=C/c1ccncc1 | -49.1% |
| CN(C)/C=N/c1ncc(C(=O)c2ccccc2)s1 | 1.48% |
| Cc1cccc(C(=O)N(Cc2ccc(C)o2)C2CCS(=O)(=O)C2)c1 (stereo not shown) | -48.4% |
| CC(C)C(NC(=O)c1ccccc1F)C(=O)Nc1nccs1 (stereo not shown) | 46.7% |
| O=C(NCCN1CCOCC1)c1cc([N+](=O)[O-])ccc1Cl | 6.5% |
| CCOC(=O)C1(C)NC(c2cccs2)C2C(=O)N(c3ccc(C)cc3)C(=O)C21 (stereo not shown) | 6.5% |
| CN1/C(=C/c2cccc[n+]2CCO)Sc2ccccc21.[I-] | 12.4% |
| CCCCNS(=O)(=O)c1ccc(NC(=O)C2CCCO2)cc1 (stereo not shown) | -8.88% |
| COc1cc(NC(=S)Nc2cccc(Cl)c2Cl)c(OC)cc1Cl | 3.14% |
| S=c1[nH]ncn1/N=C/c1cccs1 | 19.3% |
| CCN(Cc1ccccc1)S(=O)(=O)c1ccc(C(=O)N(CCCN(C)C)c2nc3cc4c(cc3s2)OCCO4)cc1.Cl | -27.5% |
| Cc1ccc(C(O)P(=O)(Oc2ccccc2)Oc2ccccc2)cc1 (stereo not shown) | 5.41% |
| CCc1nnc(NS(=O)(=O)c2ccc(NC(=S)NC(=O)c3ccccc3)cc2)s1 | 15.9% |
| CN1CCN(C(=O)CN2C(=O)COc3ccc(S(=O)(=O)N4CCOCC4)cc32)CC1 | 11.1% |

| SMILES | hERG current change (%, negative = inhibition) at 10uM |
| --- | --- |
| CCCCn1c(N)c(N(CC(C)C)C(=O)CN2C(=O)c3ccccc3C2=O)c(=O)[nH]c1=O | -7.79% |
| Clc1ncc(CN2CCN(c3ccccc3)CC2)s1 | -3.49% |
| Cc1ccc2[nH]c(=O)c(COC(=O)C3CCCCC3)cc2c1 | 16.4% |
| COc1ccc(NC(=O)C2CC(=O)N(Cc3ccc(C)cc3)C2)cc1S(=O)(=O)N1CCCCC1 (stereo not shown) | -5.3% |
| Cc1ccsc1/C=N/n1c(-c2ccccc2)n[nH]c1=S | -9.65% |
| CCCCn1c2ccccc2c2nnc(SCC(=O)NC3=NN=C(c4ccccc4)CS3)nc21 | 6.79% |
| Cc1cc(OCC(=O)N(C)c2ccccc2)cc2c1C(=O)CC(C)(C)O2 | -6.2% |
| O=C(NC1CC2CCC(C1)N2Cc1ccccc1)c1cccc(F)c1 (stereo not shown) | -60.5% |
| Cc1ccc(CSCCNC(=O)c2ccccc2)cc1 | -13.6% |
| O=C(Nc1ccc2c(c1)OCO2)NC1(C(F)(F)F)Oc2ccccc2O1 | -8.15% |
| O=C(NC1CCN(S(=O)(=O)c2cccc(F)c2)CC1)c1ccc(F)cc1 | 14.6% |
| O=C(Cn1cncn1)NCCCc1ccccc1 | 10.1% |
| CCOc1ccccc1Nc1ccc(C(=O)O)cc1[N+](=O)[O-] | 7.69% |
| O=C(CN(C(=O)CCC(=O)Nc1nccs1)c1ccc(F)cc1)NCc1ccco1 | 3.88% |
| CCOC(=O)Cc1csc(NC(=O)Cc2ccc(Br)cc2)n1 | -15.2% |
| S=c1[nH]nc(-c2ccc(Cl)cc2)n1-c1ccc2c(c1)OCCO2 | 19.2% |
| COc1ccccc1/C=C1\SC(=S)N(CC(=O)NC2CCS(=O)(=O)C2)C1=O (stereo not shown) | -6.12% |
| O=C(/C=C/c1ccc(Br)cc1)NC(=O)c1ccccc1O | 31.6% |
| CCCCOC(=O)c1ccc(NC(=O)CSc2nnnn2C)cc1 | 20% |
| C=CCOc1nc2c(c(=O)n(C)c(=O)n2C)n1Cc1ccc(Cl)cc1 | -15.6% |
| Cc1cnc(=O)[nH]c1SCc1ccc(C(F)(F)F)cc1 | 7.41% |
| COC(=O)c1cc(C(=O)OCC(=O)NC2CCS(=O)(=O)C2)cc([N+](=O)[O-])c1 (stereo not shown) | 18.9% |

From PMC4336329 (PLoS ONE, 2015)
